Drawing on article PMC10668032, this text covers binding signal for 109 sequences.

The other results are listed elsewhere or left out. At the low end of the ranking, values are background and their order means little.

This assay addresses SIX1-Q177R homeodomain (UniProt Q15475). As to the kind of experiment: universal protein binding microarray. The note with it: Universal all-10-mer PBM (8x60K, AMADID 030236), 300 nM GST-tagged protein, Alexa Fluor 488 anti-GST; buffer, salt, pH and temperature not stated; high values mean tight binding; most listed sequences are background and not binding sites; double strand, one strand shown.
In the case of ACTTTCAA, the binding signal was -0.197 E-score.
With GATCTTGC, the binding signal is -0.116 E-score.
Consider AGATAGAA, for which the binding signal is -0.112 E-score.
For TGATTGAA, the binding signal is -0.12 E-score.
As for AGGAGGAG, the figure is 0.0377 E-score; as for AGGCGATC, -0.256 E-score; as for GCTGTGAA, -0.105 E-score.
Turning to CTACTGTC, the binding signal is -0.106 E-score.
In the case of GGCTACAC, the binding signal stood at 0.424 E-score.
Turning to ACGATTCT, the binding signal is -0.0451 E-score.
Regarding TAACTTCA, the binding signal was -0.0383 E-score.
Consider ACGAAGGC, for which the binding signal was -0.279 E-score.
On to ACGGCCCG, for which the binding signal stood at 0.118 E-score.
Turning to ATGGATAG, the binding signal is -0.153 E-score.
As to GGTACGAC, the binding signal was 0.195 E-score.
Regarding ATCAATAA, the binding signal is -0.112 E-score.
As for TATCAGAA, the figure is 0.102 E-score; as for CTCAATAC, 0.0952 E-score; as for CACTTGAA, 0.202 E-score.
For ACGCAATC, the binding signal amounted to 0.0676 E-score.
Then ACGCTGGC, with 0.0478 E-score; and AATCTTTA, with -0.218 E-score.
For the sequence GCATCTAC, the binding signal came out at 0.0332 E-score.
Regarding AACACTCG, the binding signal is 0.337 E-score.
As for CTCGTACC, the figure is -0.0229 E-score; as for CACTCTAC, 0.291 E-score.
As for TCACGACA, the figure is 0.14 E-score; as for CGGTTCAC, 0.112 E-score; as for ACTGAAGT, -0.102 E-score.
As for CGTACTGC, the figure is -0.116 E-score.
Take ATCTCGTC: the binding signal was -0.251 E-score.
ACATCTAT: the binding signal was -0.0947 E-score.
Consider CCGTGTAG, for which the binding signal was determined as 0.446 E-score.
In the case of CACTCGTC, the binding signal amounted to 0.0889 E-score.
Consider TAGTCTGA, for which the binding signal was -0.0176 E-score.
Turning to ATGCAGCA, the binding signal is -0.0959 E-score.
As for ACCTTGAA, the figure is 0.14 E-score.
Then GGAGACCC, with 0.0168 E-score; and ATGACCGG, with -0.115 E-score.
On to CGGTGATA, for which the binding signal was 0.147 E-score.
For TCGATAGA, the binding signal is -0.0795 E-score.
On to AACAGCAA, for which the binding signal is -0.258 E-score.
As for CAGGCGCC, the binding signal was -0.185 E-score.
Take CTGATCGC: the binding signal is -0.182 E-score.
With CCGGGAAC, the binding signal was -0.00309 E-score.
Then TATGCAAA, with -0.0978 E-score; and ACCGGTAA, with 0.0185 E-score; and ATAATGCC, with 0.00387 E-score.
Take CTGACCAG: the binding signal stood at 0.033 E-score.
Consider AATACTGT, for which the binding signal was -0.131 E-score.
As for AGGGTTCA, the figure is 0.0912 E-score.
As for AGGTCAAA, the binding signal is -0.106 E-score.
For CTACACAG, the binding signal amounted to 0.161 E-score.
ATAAACCA: the binding signal is -0.208 E-score.
For CATGAGCA, the binding signal was -0.138 E-score.
Consider ACCAACCG, for which the binding signal came out at 0.0753 E-score.
In the case of ATACCAAT, the binding signal came out at 0.0745 E-score.
As to GTGCCTGA, the binding signal is -0.108 E-score.
Then CCTCACAC, with 0.279 E-score; and AAGCCCTG, with -0.115 E-score.
Turning to GATATTGA, the binding signal is -0.13 E-score.
As for CAAAGCAG, the figure is -0.149 E-score.
As for AAATCCAG, the binding signal is -0.18 E-score.
Consider AAGTCGAA, for which the binding signal is -0.276 E-score.
As for ACGAATTA, the figure is -0.09 E-score.
With AATCATAG, the binding signal is 0.0132 E-score.
On to GTGGTAGA, for which the binding signal is 0.148 E-score.
As for AATAGTGG, the figure is 0.0603 E-score; as for CCTCCCAC, 0.127 E-score.
Then CCGGGTGC, with 0.224 E-score; and CAAAAGCG, with -0.00548 E-score; and CGACATAA, with -0.157 E-score.
With AATTGCAC, the binding signal turned out to be 0.151 E-score.
In the case of ACGTATCG, the binding signal worked out at 0.0747 E-score.
For CCGCCACG, the binding signal was 0.0348 E-score.
On to GGATGCAA, for which the binding signal was -0.0448 E-score.
Then CGTGTGCA, with 0.202 E-score; and ATTGCTTG, with -0.166 E-score; and CCCAGGCA, with -0.0845 E-score.
As for CTGTGGTA, the figure is -0.0554 E-score; as for GAATTAAC, -0.0152 E-score.
CAGGTGCA: the binding signal is 0.0636 E-score.
Take CCTGTAAG: the binding signal is -0.0464 E-score.
As to TAACTGCA, the binding signal was 0.0233 E-score.
Take GTGCTGGA: the binding signal came out at 0.0205 E-score.
For CCACCTGG, the binding signal was -0.0928 E-score.
Regarding CTTACCGC, the binding signal is -0.0924 E-score.
As for CGAAGGCA, the figure is -0.0825 E-score; as for CAGAACTG, -0.293 E-score.
For CTTCTCTC, the binding signal is -0.255 E-score.
Then CCATACAC, with 0.396 E-score; and AGTGCACA, with 0.171 E-score.
Turning to CAATACGG, the binding signal was -0.281 E-score.
As for ATTTTACG, the figure is -0.174 E-score; as for AGGCACTC, -0.091 E-score; as for GCGGACGC, -0.00925 E-score.
For CCACGGTC, the binding signal is -0.16 E-score.
With ATTAATTC, the binding signal was -0.108 E-score.
On to CTTTCGGC, for which the binding signal is -0.0973 E-score.
Turning to TCGGCAAA, the binding signal is -0.107 E-score.
Then CGCATGAC, with 0.0335 E-score.
On to GGTCCGGA, for which the binding signal was 0.161 E-score.
Take ATTGCGGA: the binding signal was -0.098 E-score.
As for CAATATTG, the figure is 0.074 E-score.
In the case of CACCTTGG, the binding signal stood at 0.344 E-score.
Turning to AAGGGGGG, the binding signal was determined as 0.122 E-score.
Then GTCTGTGA, with 0.137 E-score.
On to CCCCGTAC, for which the binding signal is -0.0364 E-score.
Turning to ATGTCCAG, the binding signal was -0.22 E-score.
